For 102 sequences, TetR repression strength results are on record in a collection of fitness landscapes (doi:10.1038/s41467-024-54723-y).

Whole data set: some 18,000 sequences, median “TetR repression strength (sort-seq, GFP reporter)” near 0.23, cut for the highest 2% near 0.68. Some of the results follow.

The assay deals with TetR (class B, Tn10) (UniProt P04483). Nature of the assay: TetR repression strength (sort-seq, GFP reporter) (relative to tetO2 = 1); higher = stronger repression. The settings on record: E. coli. In short, it runs like this: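 Repression strength is the top bin index plus one minus the read-weighted mean bin, relative to the unaltered operator's value. A low-copy library in E. coli SIG10-MAX randomized eight operator positions between a constitutive promoter and sfGFP, with TetR expressed constitutively; cells grew 5 h at 37 °C in LB with 50 µg/mL chloramphenicol and 10^6 were FACS-sorted into 13 bins that were each Illumina-sequenced. Three independent transformations were averaged, keeping only members with ≥30 reads in all replicates and CV ≤0.5.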
UniProt P04483, sequence (P04483 whole entry): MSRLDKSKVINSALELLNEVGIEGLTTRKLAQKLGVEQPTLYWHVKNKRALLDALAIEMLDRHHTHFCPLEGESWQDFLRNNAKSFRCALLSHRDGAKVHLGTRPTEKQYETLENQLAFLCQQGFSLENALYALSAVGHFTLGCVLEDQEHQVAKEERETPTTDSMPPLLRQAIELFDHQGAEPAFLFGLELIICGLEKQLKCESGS
TCCCAGGGAGTGCCCGAGA showed a TetR repression strength of 0.235.
To TCCCCGCCAGTATTGGAGA belongs 0.218.
The sequence TCCCAGCTAGTCATTGAGA displayed a TetR repression strength of 0.131.
Then TCCCGCTGAGTTGCTGAGA, with 0.139; and TCCCGAAAAGTCCTCGAGA, with 0.162; and TCCCCAGTAGTGTGGGAGA, with 0.295.
Then TCCCAAACAGTGGAGGAGA, with 0.431; and TCCCCTTCAGTCGGTGAGA, with 0.315; and TCCCCGTTAGTATGTGAGA, with 0.296.
To TCCCGCAGAGTGTGCGAGA belongs 0.361; to TCCCCAGCAGTGGTGGAGA, 0.175; to TCCCGTCGAGTTTACGAGA, 0.338.
On to TCCCGTCGAGTTAGTGAGA, for which the TetR repression strength amounted to 0.366.
To TCCCAGGTAGTGAAAGAGA belongs 0.147; to TCCCGGAAAGTCGTTGAGA, 0.296; to TCCCAAAAAGTGTTTGAGA, 0.108.
To TCCCAGCGAGTCGTGGAGA belongs 0.183.
For the sequence TCCCATATAGTGGTAGAGA, the TetR repression strength turned out to be 0.236.
To TCCCGTAGAGTAGTGGAGA belongs 0.0489.
To TCCCGGTGAGTTGACGAGA belongs 0.318.
For TCCCGTCAAGTGTTAGAGA, the TetR repression strength stood at 0.291.
Then TCCCTTCTAGTGCCCGAGA, with 0.546; and TCCCATATAGTGGTCGAGA, with 0.159.
Consider TCCCGGGCAGTAACCGAGA, for which the TetR repression strength turned out to be 0.373.
To TCCCTTATAGTTTTAGAGA belongs 0.27.
Then TCCCTGAAAGTTGCGGAGA, with 0.171.
To TCCCTCTCAGTTGATGAGA belongs 0.736.
In turn, TCCCGGAAAGTGGGGGAGA registered a TetR repression strength of 0.148.
Then TCCCCGGGAGTGCTGGAGA, with 0.14; and TCCCAGACAGTGGAGGAGA, with 0.129.
To TCCCCGTAAGTGTTCGAGA belongs 0.473; to TCCCATCCAGTGTTGGAGA, 0.222; to TCCCAAGTAGTGGTCGAGA, 0.173.
To TCCCTGAGAGTCTGGGAGA belongs 0.226; to TCCCTCGGAGTCGCCGAGA, 0.292.
In turn, TCCCGGCGAGTATGAGAGA yielded a TetR repression strength of 0.226.
Then TCCCTGGAAGTGTCAGAGA, with 0.215.
To TCCCGCAAAGTACGTGAGA belongs 0.00212.
Then TCCCGACCAGTTTGGGAGA, with 0.109; and TCCCGTTTAGTGAAAGAGA, with 0.218.
Sequence TCCCCCTTAGTTAGGGAGA showed a TetR repression strength of 0.299.
For TCCCAGGGAGTTTGGGAGA, the TetR repression strength was found to be 0.171.
Then TCCCGCCTAGTGGGAGAGA, with 0.268.
Then TCCCAGAAAGTCTAAGAGA, with 0.144.
Then TCCCTATGAGTTAATGAGA, with 0.127; and TCCCGGCAAGTCCGAGAGA, with 0.513; and TCCCTTATAGTTTAGGAGA, with 0.119.
In turn, TCCCTGTGAGTGCAAGAGA gave a TetR repression strength of 0.47.
Then TCCCAAGCAGTGAAAGAGA, with 0.367.
To TCCCGCAGAGTGTATGAGA belongs 0.201; to TCCCGGTCAGTCTTAGAGA, 0.463.
Then TCCCAGGGAGTCATCGAGA, with 0.555.
TCCCCTCGAGTATGGGAGA returned a TetR repression strength of 0.133.
To TCCCCGAAAGTTAACGAGA belongs 0.152; to TCCCCTGAAGTCGCGGAGA, 0.13; to TCCCTTGAAGTGTCAGAGA, 0.214.
To TCCCAGACAGTTGGTGAGA belongs 0.387.
The sequence TCCCTTGCAGTACGAGAGA yielded a TetR repression strength of 0.138.
Then TCCCCTCAAGTAGCTGAGA, with 0.207; and TCCCATTAAGTGCGGGAGA, with 0.124.
TCCCGGGGAGTTAGGGAGA showed a TetR repression strength of 0.346.
Then TCCCGGAAAGTTGGCGAGA, with 0.383; and TCCCTTGGAGTTCTGGAGA, with 0.569; and TCCCCTGTAGTGATGGAGA, with 0.232.
With TCCCTTTTAGTTGTTGAGA, the TetR repression strength came out at 0.273.
To TCCCAGGGAGTGAACGAGA belongs 0.604.
To TCCCCTCGAGTGCGTGAGA belongs 0.301; to TCCCTCATAGTGGCAGAGA, 0.448.
To TCCCCGGAAGTGGGCGAGA belongs 0.173; to TCCCCTAGAGTAGGGGAGA, 0.191; to TCCCGGCAAGTACTAGAGA, 0.268.
In turn, TCCCCGGAAGTCCGGGAGA returned a TetR repression strength of 0.352.
Then TCCCCTAGAGTATGAGAGA, with 0.537.
Turning to TCCCTCAGAGTCACCGAGA, the TetR repression strength was determined as 0.412.
To TCCCAGTTAGTGGACGAGA belongs 0.218.
Then TCCCTGTGAGTTTGTGAGA, with 0.366.
As for TCCCCTGAAGTAGGGGAGA, the TetR repression strength is 0.317.
To TCCCGGTGAGTGATAGAGA belongs 0.428.
As to TCCCATGAAGTGTCTGAGA, the TetR repression strength was 0.178.
On to TCCCAATCAGTGCAGGAGA, for which the TetR repression strength came to 0.164.
In turn, TCCCTGAGAGTGGCTGAGA yielded a TetR repression strength of 0.271.
As for TCCCATTCAGTAGGCGAGA, the TetR repression strength was 0.295.
Then TCCCGTGAAGTGGAAGAGA, with 0.321.
Then TCCCAGCCAGTAACTGAGA, with 0.37; and TCCCGAACAGTAGTTGAGA, with 0.242; and TCCCGACAAGTGTTAGAGA, with 0.0117.
Then TCCCGGAGAGTCGGCGAGA, with 0.14; and TCCCACTTAGTTTTTGAGA, with 0.256; and TCCCGACTAGTCGGAGAGA, with 0.264.
The sequence TCCCTTTTAGTCGCAGAGA gave a TetR repression strength of 0.329.
Then TCCCGTCAAGTTGCGGAGA, with 0.23; and TCCCTGGAAGTTCTAGAGA, with 0.223; and TCCCGCGCAGTTAGAGAGA, with 0.24.
Then TCCCCTCGAGTGTCTGAGA, with 0.168; and TCCCTTATAGTTATAGAGA, with 0.312.
Turning to TCCCGAGGAGTGAGAGAGA, the TetR repression strength is 0.322.
TCCCCATTAGTCCTAGAGA showed a TetR repression strength of 0.301.
Then TCCCCCGCAGTGGTTGAGA, with 0.211.
To TCCCTGTAAGTGTTCGAGA belongs 0.273; to TCCCACCAAGTCCGGGAGA, 0.203; to TCCCGGGCAGTTCTTGAGA, 0.0775.
To TCCCGGAGAGTTTAAGAGA belongs 0.145.
